# Test results: publication PMC4336329 (PLoS ONE, 2015)
# The whole screen tested about 310,000 compounds, of which about 2,200 (0.71%) showed an effect of 50% or more. The effect is printed as a negative number. This is one part of the list.
# Biological target: human ether-à-go-go-related gene (hERG) potassium channel (human, UniProt Q12809)
# Assay: primary screen, population patch clamp on CHO cells stably expressing hERG
# human ether-à-go-go-related gene (hERG) potassium channel, sequence (Q12809 whole entry, looked up): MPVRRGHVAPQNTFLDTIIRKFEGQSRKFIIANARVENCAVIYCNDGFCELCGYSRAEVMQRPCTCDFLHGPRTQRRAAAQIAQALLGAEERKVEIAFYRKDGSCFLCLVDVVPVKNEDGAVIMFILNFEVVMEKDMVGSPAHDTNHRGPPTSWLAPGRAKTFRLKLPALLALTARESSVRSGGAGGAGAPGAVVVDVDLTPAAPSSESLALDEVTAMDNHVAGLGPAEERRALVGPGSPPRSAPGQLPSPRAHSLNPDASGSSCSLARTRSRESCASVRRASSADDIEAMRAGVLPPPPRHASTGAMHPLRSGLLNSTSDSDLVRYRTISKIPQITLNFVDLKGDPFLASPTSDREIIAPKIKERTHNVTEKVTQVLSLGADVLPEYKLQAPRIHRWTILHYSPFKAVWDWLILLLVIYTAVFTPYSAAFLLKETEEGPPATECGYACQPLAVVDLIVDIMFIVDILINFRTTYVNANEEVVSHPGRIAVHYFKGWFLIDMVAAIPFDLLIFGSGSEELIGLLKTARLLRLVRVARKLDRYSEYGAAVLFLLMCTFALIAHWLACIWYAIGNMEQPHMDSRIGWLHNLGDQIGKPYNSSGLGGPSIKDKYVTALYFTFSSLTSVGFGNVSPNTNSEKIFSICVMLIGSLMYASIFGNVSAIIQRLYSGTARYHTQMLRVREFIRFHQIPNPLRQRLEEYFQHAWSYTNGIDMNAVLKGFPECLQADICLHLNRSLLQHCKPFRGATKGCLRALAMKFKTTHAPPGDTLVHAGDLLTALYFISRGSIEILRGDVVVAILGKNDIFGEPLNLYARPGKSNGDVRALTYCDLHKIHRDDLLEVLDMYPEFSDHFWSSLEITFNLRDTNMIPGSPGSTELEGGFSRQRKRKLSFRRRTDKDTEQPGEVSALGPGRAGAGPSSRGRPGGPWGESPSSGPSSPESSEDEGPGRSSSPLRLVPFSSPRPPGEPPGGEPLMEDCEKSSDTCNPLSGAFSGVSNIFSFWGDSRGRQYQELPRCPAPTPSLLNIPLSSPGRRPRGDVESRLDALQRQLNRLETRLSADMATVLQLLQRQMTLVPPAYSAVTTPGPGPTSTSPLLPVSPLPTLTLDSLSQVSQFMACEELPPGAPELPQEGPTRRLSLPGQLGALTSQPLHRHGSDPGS
row,SMILES,"hERG current change (%, negative = inhibition) at 1uM"
1,O=C(c1ccco1)N1CCN(Cc2nc(-c3cccs3)no2)CC1,2.22%
2,CN1CCC(=O)N([C@H](CSc2ccccc2)c2ccccc2)CC1,-46.4%
3,COc1ccc(C(=O)N/C(=C/c2cccs2)C(=O)NC(C)(C)C)cc1OC,10.1%
4,COc1ccc(-c2cc(C(=O)N3CCc4ccccc4C3)no2)cc1,5.04%
5,Cc1ccccc1N1CCN(C2CCCN(C(=O)c3cc[n+]([O-])cc3)C2)CC1 (stereo not shown),12.3%
6,O=C(NC(C(=O)N/N=C/c1cc([N+](=O)[O-])ccc1O)c1n[nH]c(=O)c2ccccc12)c1ccccc1 (stereo not shown),15.5%
7,O=C(NCCNS(=O)(=O)c1ccc(C(F)(F)F)cc1)N1CCOCC1,10.5%
8,COC(=O)c1sccc1NC(=O)Nc1ccc(OC)cc1OC,-2%
9,Cn1c(SCC(=O)NC(=O)c2cccc([N+](=O)[O-])c2)nnc1-c1ccc(F)cc1,-3.7%
10,CC1=NCCN1S(=O)(=O)c1ccccc1[N+](=O)[O-],8.12%
11,ClCc1csc(-c2ccc(Cl)cc2)n1,2.95%
12,O=C(N/N=C/c1ccc(C(F)(F)F)cc1)c1ccncc1,1.99%
13,Cc1cccc(OCCC(=O)Nc2ccc(N3CCOCC3)cc2N2CCOCC2)c1,12.4%
14,COc1ccc(NC(=O)c2ccccn2)cc1S(=O)(=O)N1CCOCC1,7.48%
15,CCCC(=O)O[C@]1(C(=O)CO)CC[C@H]2[C@@H]3CCC4=CC(=O)CC[C@]4(C)[C@H]3[C@@H](O)C[C@@]21C,11.3%
16,COC(=O)c1[nH]c2ccccc2c1NS(=O)(=O)c1ccc(OC)cc1OC,2.35%
17,O=C(Nc1ccc(S(=O)(=O)NCc2ccccc2)cc1)C1CCCCC1,17.1%
18,CC(C)(C)C(=O)Nc1ncc(C(F)(F)F)cc1Cl,3.37%
19,O=C(c1ccccc1)c1cc2ccccc2o1,12.2%
20,COc1ccccc1CN1CC(C(=O)N(C)Cc2ccncc2C)CCC1=O (stereo not shown),5.35%
21,CCOC(=O)CN1N=C(/C=C/c2ccccc2)CCC1=O,-5.36%
22,COc1cccc(CC2(CO)CCCN(Cc3cn[nH]c3-c3ccccc3)C2)c1 (stereo not shown),-6.05%

row,SMILES,"hERG current change (%, negative = inhibition) at 1uM"
1,CO/N=C/C(C#N)=C/c1ccc(OC)c(OC)c1,12.5%
2,O=C(NC1CCCCC1)Oc1cc2oc(=O)sc2cc1Cl,-3.99%
3,COc1ccc(-c2noc(CSc3nnc(Cc4ccccc4)n3-c3cccc(C)c3)n2)cc1OC,3.88%
4,COc1cc(/C=C2\SC(=S)N(N3CCOCC3)C2=O)ccc1O,5.44%
5,COc1ccc(-n2nc3c(c2NC(=O)c2ccc(Br)cc2)CS(=O)C3)cc1 (stereo not shown),-12.2%
6,Cc1nc2ncnn2c(C)c1CCC(=O)NCCCN1CCN(c2cccc(Cl)c2)CC1,5.19%
7,CCC(C(=O)NCCC(C)C)N(Cc1ccccc1Cl)C(=O)c1snc(C(N)=O)c1N (stereo not shown),14.4%
8,CC(=NCCC1=CCCCC1)c1c(O)n(-c2ccccc2)c(=O)[nH]c1=O,13.4%
9,O=C(N/C(=C\c1ccc(Cl)cc1)C(=O)N1CCCCC1)c1ccco1,16.2%
10,CC(C)C(NC(=O)c1ccccc1F)C(=O)NCCc1ccccn1 (stereo not shown),21.3%
11,CCC1C(=O)NCCN1C(=O)c1ccc2nc(Cc3ccc(OC)cc3)oc2c1 (stereo not shown),19.7%
12,CCc1cccc(NC2c3ccccc3C(=O)N2c2cccnc2)c1 (stereo not shown),2.77%
13,O=C(NNC(=O)C1COc2ccccc2O1)c1ccccc1 (stereo not shown),-4.27%
14,Cn1c(N)c(C(=O)Nc2c(Cl)cccc2Cl)sc1=S,15%
15,COC(=O)CSc1nc(SCc2ccc(C)cc2)nc2c1CCCC2,4.94%
16,O=C(NC(Cc1ccccc1)C(=O)NCCc1ccccn1)c1ccccc1 (stereo not shown),8.66%
17,COc1ccc(CCN(C)C2CCCN(S(=O)(=O)c3ccc(C)cc3)C2)cc1OC (stereo not shown),-82.1%
18,COc1ccc(-c2nn(CCC#N)cc2/C=N/O)cc1,18.4%
19,CNC(=O)CC1C(=O)N(c2ccc(Cl)cc2)C(=S)N1NC(=O)c1cccc(F)c1 (stereo not shown),10.6%
20,C=CCNCc1cccn1-c1sc2c(c1C#N)CCCC2,4.13%
21,O=C(CCCC(=O)OCC(=O)c1ccc(F)cc1)Nc1cc(C(F)(F)F)ccc1Cl,12%
22,Cc1ccc(/C=N/Nc2cccc(C(=O)O)c2)s1,20.8%

row,SMILES,"hERG current change (%, negative = inhibition) at 1uM"
1,CSc1nc(NC(C)C)nc(N2CCOCC2)n1,3.59%
2,CCNC(=O)COC(=O)c1cc(-c2ccccc2)nn1-c1ccccc1,12.3%
3,C/C(=N/OC(=O)c1ccc(C)cc1)c1cccs1,10.7%
4,CC(C)CN(C(=O)CC(C)c1ccccc1)c1c(N)n(Cc2ccccc2)c(=O)[nH]c1=O (stereo not shown),7.76%
5,Cc1sc2nc(-c3cccnc3)nc(Cl)c2c1-c1ccccc1,11.3%
6,COCCn1c(SCC(=O)Nc2cc(C)cc(C)c2)nc2ccccc2c1=O,-11.6%
7,Cc1cccc(-n2c(O)c(C=Nc3ccc(S(N)(=O)=O)cc3)c(=O)[nH]c2=O)c1,15.5%
8,Cl.N=c1sccn1Cc1ccc(Cl)cc1Cl,-3.04%
9,Cc1ccc(OCCC(=O)OCC(=O)c2c(N)n(C)c(=O)n(C)c2=O)cc1,-11.3%
10,C(=N\Nc1ccccc1)/c1nc2ccccc2s1,7.08%
11,O=c1ccc2ccc(Oc3ccc([N+](=O)[O-])cc3[N+](=O)[O-])cc2o1,-16.6%
12,Cc1cc(C(=O)N/N=C\c2cc(C(C)(C)C)c(O)c(C(C)(C)C)c2)n[nH]1,12.2%
13,Cc1c(NS(=O)(=O)c2ccc(Cl)c(C(=O)OCC(=O)NCc3ccco3)c2)c(=O)n(-c2ccccc2)n1C,1.27%
14,CCS(=O)(=O)N1Cc2ccccc2CC1C(=O)Nc1nc2ccccc2[nH]1 (stereo not shown),5.11%
15,C/C(CC(=O)Nc1ccc(C)c(Cl)c1)=N\NC(=O)c1ccco1,0.72%
16,COc1ccc(CCNC(=O)CN2C(=O)NC(Cc3c[nH]c4ccccc34)C2=O)cc1 (stereo not shown),9.58%
17,Cc1ccc(-c2cc(C(F)F)n3ncc(C(=O)N4CCC5(CC4)OCCO5)c3n2)cc1,10.9%
18,Br.N=c1n(CC(=O)c2ccc([N+](=O)[O-])cc2)c2ccccc2n1Cc1ccccc1,-8.69%
19,COc1ccc(C(=O)Nc2ccc(OC)c(OC)c2)cc1,6.59%
20,COc1ccc(S(=O)(=O)N(C)CC(=O)NCCN2CCOCC2)cc1C,19.1%
21,CCCCCCC(=O)N(O)C1CC(=O)N(c2ccc(Cl)cc2)C1=O (stereo not shown),11.5%
22,Cc1c(N)cc[n+](CC(=O)c2ccccc2)c1C.[Br-],15.9%

row,SMILES,"hERG current change (%, negative = inhibition) at 1uM"
1,CCc1nnc(NC(=O)COc2ccc([N+](=O)[O-])cc2)s1,11.4%
2,O=C(NC1CCCCC1)c1ccc2c(c1)S(=O)(=O)c1ccccc1C2=O,9.15%
3,CCCn1c(SCC(=O)NCc2ccco2)nc2c1c(=O)n(C)c(=O)n2C,-4.34%
4,CCOc1ccc(OCCOC(=O)CNC(=O)c2ccc(Cl)cc2Cl)cc1,12.5%
5,COc1ccc(N(C)S(=O)(=O)c2cccc(C(=O)Nc3nnc(C4CC4)s3)c2)cc1,8.59%
6,O=C(CN1C(=O)CC(c2ccccc2)Sc2ccccc21)NCC1CCCO1 (stereo not shown),8.03%
7,CCN(CC)CCN1C(=O)C(O)=C(C(=O)c2ccco2)C1c1ccccn1 (stereo not shown),7.68%
8,O=C(Oc1ccc(-c2nnco2)cc1)N(c1ccccc1)c1ccccc1,-6.62%
9,CCN(CCN1CCCC1)C(=O)c1cc(COc2ccccc2SC)on1,0.395%
10,COc1cccc(C(=O)N2CCN(Cc3ccccc3Br)CC2)c1.O=C(O)C(=O)O,21.9%
11,Cc1cc(/C=N/NS(=O)(=O)c2ccc(F)c(Cl)c2)no1,8.09%
12,CCn1cc(CN2CCc3c([nH]c4ccccc34)C2c2cccc(OC)c2)c(C)n1 (stereo not shown),-3.81%
13,Cc1ccc(CNC(=O)CCOc2ccc(C(C)(C)C)cc2)cc1,8.7%
14,COc1ccc(CNC(=O)COc2ccc(C)nc2[N+](=O)[O-])cc1,2.18%
15,COc1ccc(-c2csc(Nc3cc(C)ccn3)n2)cc1C,14.2%
16,S=c1[nH]c2ccc(Cl)cc2s1,8.54%
17,Cc1cc(OCCCCCNCCO)ccc1Cl,-3.29%
18,Fc1ccccc1/C=N/Nc1ccc(Cl)nn1,10.3%
19,Cc1ccc(NC(=O)C2C3C=CC4(CN(Cc5cccnc5)C(=O)C24)O3)cc1 (stereo not shown),9.05%
20,N/C(Cc1ccccc1)=N\OC(=O)c1cccc2ccccc12,41.7%
21,O=C(CSc1nc2ccccc2nc1N1CCCCC1)Nc1ccc(F)cc1,2.12%
22,O=C(NC1CC1)C(Cc1ccccc1)NS(=O)(=O)c1ccccc1F (stereo not shown),15.3%
